The test system of this data set is ATP. Description: switch fluorescence ratio, 500 uM ATP over buffer (Cy3 cluster intensity, sum of 5 cycles each) (fold (ratio)); higher = stronger signal-on switching upon ATP binding; sequences stand for … in TCGTCGGCAGCGTCAGATGTGTATAAGAGACAGTTTTTTTTTTTTTTTTTTTTTTTTT…TC. The conditions noted are these: aptamer strand: ATP DNA aptamer (quencher-CACCTGGGGGAGTATTGCGGAGGAAGG + anchor), 100 nM annealed; ATP concentration: 500 uM; one replicate. The method in brief: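 Imaging in selection buffer was followed by imaging after 15 min with 500 uM ATP at 22 °C, for Cy3-labelled switching-strand clusters annealed to 100 nM quencher-labelled ATP aptamer on a modified Illumina MiSeq flow-cell. Five of these buffer/ATP cycles ran, separated by NaOH stripping and re-annealing. The fluorescence ratio per cluster is summed target-cycle over summed buffer-cycle Cy3 intensity, averaged per switch-domain sequence; clusters outside 100-1000 RFU were removed.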

In the supplement of paper PMC10126150 one finds switch fluorescence ratio data, which are given here for 78 sequences.

Sequences with one replicate were seen in a single cluster, so their values are uncertain.
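Further: ATP exposure 15 min at 22 °C before imaging.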

GCCCATCTGC: the switch fluorescence ratio is 1.11.
As to TTGGTTATGA, the switch fluorescence ratio amounted to 1.03.
For the sequence CTCACGAAAG, the switch fluorescence ratio was 1.05.
Next, CGGTTACATA: 1.1.
Next, TGTAGTCTGC: 0.985; CACTAGTCAA: 1.1; CGTTTAATAG: 1.06.
Turning to CATACTATAT, the switch fluorescence ratio was 1.09.
Next, GGTCAACTGA: 1.07; GGCTCCACCG: 1.22; GATCGGAGTA: 0.937.
Consider TCGCATTCT, for which the switch fluorescence ratio was determined as 1.35.
Regarding AAGTTAATAT, the switch fluorescence ratio stood at 1.05.
CGAATGATTT: the switch fluorescence ratio came to 1.01.
Next, AGCGAGAGAG: 1.01.
For the sequence GAAACTCTTT, the switch fluorescence ratio is 0.998.
In the case of GACAATATAC it was 1.39; in that of TATACTTTCG, 1.01.
In the case of CGCTAGACTT it was 1.46; in that of ACTTTGCAGG, 1.14.
On to AATGAATGGA, for which the switch fluorescence ratio came to 1.06.
Consider TTACACCTGT, for which the switch fluorescence ratio was found to be 1.04.
In the case of CTGGGGTCCG it was 1; in that of CCGACAGGCC, 1.62; in that of GAGTGTCAGG, 1.02.
As to GTGCCACAGG, the switch fluorescence ratio stood at 1.1.
In the case of GCTTTCCTGT it was 0.979.
In the case of TTGCCGGGAC it was 1.01; in that of GGCCTACCCC, 1.05.
In the case of CTCATTGCAT, the switch fluorescence ratio was found to be 1.17.
With CAAGTTCCAT, the switch fluorescence ratio was 0.984.
Take TAGTGAACAT: the switch fluorescence ratio came out at 1.03.
Next, AAATCAGAGT: 0.999.
In the case of TCGAAGGTGT it was 1.03; in that of AATAAGAGAT, 0.973.
Next, ACTGTATGTT: 1.11; CTGGCCCGG: 1.01.
Regarding ACGCAGGGGC, the switch fluorescence ratio turned out to be 1.11.
As for TTACACGGAC, the switch fluorescence ratio came to 1.57.
Next, GAGCCTGAGA: 1.04.
For the sequence GCTTATCTGT, the switch fluorescence ratio came out at 1.
Consider CTTGTCTACT, for which the switch fluorescence ratio worked out at 0.982.
As for CAGGGTCTTT, the switch fluorescence ratio worked out at 0.906.
For AGGCATACCG, the switch fluorescence ratio worked out at 1.06.
GTCGTAGAGC: the switch fluorescence ratio came out at 0.974.
Take CAGCGATTAT: the switch fluorescence ratio came out at 1.09.
With TTGGGGCAAT, the switch fluorescence ratio was determined as 1.37.
Regarding CCGGCCCCTA, the switch fluorescence ratio came out at 1.24.
For CTATTTACCG, the switch fluorescence ratio was 1.02.
In the case of ACGCGCGTTG it was 1.05; in that of TTGTAGATTT, 0.954.
Consider ATTGTTTTCT, for which the switch fluorescence ratio turned out to be 1.02.
TGGAATTCGT: the switch fluorescence ratio worked out at 1.
Next, GTTGTTTAAA: 1.01.
Consider ACGTGAGAA, for which the switch fluorescence ratio amounted to 1.05.
In the case of CAGTTTATTC it was 1.01; in that of AGCTTTCTGT, 0.977.
TGTTCGATAA: the switch fluorescence ratio worked out at 0.989.
On to CCTAGGAGGC, for which the switch fluorescence ratio was 1.06.
Regarding CGGTATTTCT, the switch fluorescence ratio was found to be 0.986.
Consider AATTCAGGTA, for which the switch fluorescence ratio was determined as 1.05.
Take ATTGTGAGTT: the switch fluorescence ratio stood at 0.95.
As to GTTTGCGTGG, the switch fluorescence ratio was found to be 0.979.
In the case of TTGGGTTCTG it was 1.02; in that of CACTAGCTAC, 2.7.
As for TTTCATCTCC, the switch fluorescence ratio is 1.05.
For CACACGCCTA, the switch fluorescence ratio stood at 1.11.
Next, CCTATTCTCC: 1.16; TTACAAATCA: 1.05.
As for ACGGTATTTA, the switch fluorescence ratio came to 1.09.
In the case of TGACGCCTT it was 1.78.
In the case of TATGATGCAA it was 1.01; in that of CGAGGACAGC, 1.06.
Take CATAAGCTTC: the switch fluorescence ratio worked out at 1.11.
As for TATAAGTTCG, the switch fluorescence ratio stood at 0.989.
As to GCAGTTGTGG, the switch fluorescence ratio came to 0.977.
In the case of ACCGGTCTTA, the switch fluorescence ratio worked out at 1.01.
For CTATAGTAA, the switch fluorescence ratio worked out at 1.1.
